Measured values: article PMC4336329 (PLoS ONE, 2015)
Screen size: about 310,000 compounds; about 2,200 (0.71%) showed an effect of 50% or more. The effect is printed as a negative number. Some of the results follow.

Molecular target: human ether-à-go-go-related gene (hERG) potassium channel (human, UniProt Q12809)
Assay: primary screen, population patch clamp on CHO cells stably expressing hERG

Sequence of human ether-à-go-go-related gene (hERG) potassium channel (Q12809 whole entry, looked up): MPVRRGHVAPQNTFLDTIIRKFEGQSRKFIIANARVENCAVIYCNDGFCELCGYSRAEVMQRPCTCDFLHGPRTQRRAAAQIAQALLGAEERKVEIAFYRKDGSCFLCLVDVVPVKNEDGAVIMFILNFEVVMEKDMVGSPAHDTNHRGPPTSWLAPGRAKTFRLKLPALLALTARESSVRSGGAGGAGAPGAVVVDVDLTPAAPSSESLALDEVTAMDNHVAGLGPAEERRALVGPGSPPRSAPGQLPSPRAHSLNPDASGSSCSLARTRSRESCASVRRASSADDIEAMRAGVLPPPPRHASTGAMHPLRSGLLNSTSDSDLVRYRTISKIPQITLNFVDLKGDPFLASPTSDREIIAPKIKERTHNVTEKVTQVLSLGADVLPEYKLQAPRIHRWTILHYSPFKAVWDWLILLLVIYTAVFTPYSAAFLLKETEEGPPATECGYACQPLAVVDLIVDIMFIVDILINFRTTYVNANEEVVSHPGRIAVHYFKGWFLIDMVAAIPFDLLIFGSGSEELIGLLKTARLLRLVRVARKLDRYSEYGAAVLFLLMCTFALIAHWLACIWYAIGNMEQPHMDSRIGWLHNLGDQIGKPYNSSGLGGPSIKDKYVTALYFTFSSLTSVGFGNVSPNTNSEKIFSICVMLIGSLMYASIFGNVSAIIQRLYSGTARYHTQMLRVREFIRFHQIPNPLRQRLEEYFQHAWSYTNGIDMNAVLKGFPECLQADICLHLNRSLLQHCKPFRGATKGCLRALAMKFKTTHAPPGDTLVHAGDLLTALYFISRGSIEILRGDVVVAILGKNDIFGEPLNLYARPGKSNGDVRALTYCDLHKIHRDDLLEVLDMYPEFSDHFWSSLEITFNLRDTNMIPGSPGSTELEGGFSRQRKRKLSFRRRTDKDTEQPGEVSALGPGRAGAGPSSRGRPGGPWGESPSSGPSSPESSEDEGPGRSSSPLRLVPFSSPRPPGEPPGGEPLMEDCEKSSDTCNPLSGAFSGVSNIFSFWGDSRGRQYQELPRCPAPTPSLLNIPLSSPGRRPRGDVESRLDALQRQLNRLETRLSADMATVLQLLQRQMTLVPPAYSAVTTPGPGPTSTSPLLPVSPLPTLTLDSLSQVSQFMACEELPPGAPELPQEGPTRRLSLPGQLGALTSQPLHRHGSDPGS

Structure (SMILES) | hERG current change (%, negative = inhibition) at 1uM
O=C(C1CCN(S(=O)(=O)c2cccc3cccnc23)CC1)N1CCN(C2CCCC2)CC1 | 14.7%
C[C@H](NC(=O)[C@@H]1Cc2ccccc2CN1)C(=O)NCC1CCCO1 (stereo partly shown) | 22.3%
CCCOc1ccccc1/C=N/NC(=O)C1CC1 | 10.8%
O=C(O)CCSc1nnc(-c2ccncc2)n1-c1ccccc1 | 6.18%
CC(C)(CNS(=O)(=O)c1ccc2ccccc2c1)N1CCOCC1 | 4.09%
Cc1ccc(Nc2nnc(-c3ccncc3)s2)c(Br)c1 | -17.6%
Cc1cc(NC(=O)CSc2nc(N)c(NC(=O)c3ccccc3F)c(=O)[nH]2)no1 | 24.6%
CCN(CC)c1nc2ccccc2[nH]c1=O | 12.3%
O=C(O)c1ccccc1/C=N/NC(=O)c1cc(-c2ccco2)nc2ccccc12 | 12.8%
CCOC(=O)c1[nH]c2ccc(C)cc2c1N | 15%
Cc1ccc(C)c(S(=O)(=O)N2CCCC2CNC(=O)C(=O)NCc2ccco2)c1 (stereo not shown) | -12.4%
CC12CC(O)C3c4ccc(O)cc4CCC3C1CC/C2=N\O (stereo not shown) | 11.7%
O=C1C2C3C=CC(CC3)C2C(=O)N1/N=C/c1ccc(O)c(O)c1 (stereo not shown) | -15%
CN(Cc1ccccc1)C(=O)CSc1nc2ccccc2[nH]1 | 8.86%
CCOC(=O)c1c(C)nsc1NC(=O)c1ccco1 | 5.14%
CCN1C(=O)OC2(CCCCC2)C1(C)O (stereo not shown) | 10.3%
CCN(CC)CCSc1nc(O)c(-c2ccccc2)c(=O)n1-c1ccccc1.Cl | 3.79%
COC(=O)CSC1=C(C#N)C(c2cccc(OC)c2)CC(=O)N1 (stereo not shown) | 11.6%
Cc1ccc(NC(=O)c2cc3ccccc3o2)cc1Cl | 15.8%
Cn1nnnc1SCC(=O)NCCCc1ccccc1 | -7.14%
CN1C(=O)CSC1=NCC12CC3CC(CC(C3)C1)C2 | -2.87%
COc1ccc(-c2nn(-c3ccccc3)cc2C(=O)Nc2nc(CC(C)=O)ns2)cc1 | 13.6%
O=C(COc1ccccc1[N+](=O)[O-])Nc1cccc(S(=O)(=O)NC2=NCCCCC2)c1 | 18%

Structure (SMILES) | hERG current change (%, negative = inhibition) at 1uM
CCc1nnc(NC(=O)CCC(=O)N2CCN(Cc3ccc(C)cc3C)CC2)s1 | 7.6%
COc1ccc2ccccc2c1CNCc1ccccn1.Cl | 4.73%
COc1ccccc1NC(=O)CCC(=O)N(Cc1ccc(OC)c(OC)c1)c1nccs1 | 14.4%
CCOC(=O)c1c(NC(=O)c2nn(CC)cc2Br)sc2c1CCCCC2 | 11.4%
O=C(Cc1ccccc1)Nc1ccccc1C(=O)Nc1ccccc1 | 3.69%
Cc1cc(C)n(C(=O)Cc2cn3ccsc3n2)n1 | 4.06%
CCc1c(C)sc(NC(=O)c2ccc(Br)o2)c1C(=O)OC | 20.5%
COc1ccc(CNC(=O)CN2C(=O)NC(C)(c3ccc(Cl)cc3)C2=O)cc1 (stereo not shown) | 6.2%
O=C(Nc1ccc(N2CCN(Cc3ccccc3)CC2)cc1)c1cccnc1 | 5.66%
O=c1c2[nH]c3ccccc3c2nc2n1CCCS2 | -2.85%
O=c1[nH]nc(Cc2ccc(-c3cccc(Cl)c3)o2)c2ccccc12 | 6.53%
Cn1c(=O)c2c(nc(SCC(=O)O)n2Cc2cccc(C(F)(F)F)c2)n(C)c1=O | -7.59%
COc1ccc(CC(=O)N2CCN(c3ccccc3OC)CC2)cc1 | 11.8%
COc1ccccc1CNC(=O)c1ccc(SC)cc1OC | -9.26%
COc1ccc(C)cc1NC(=O)CN1c2cccc3cccc(c23)S1(=O)=O | 9%
N/C(CC1CC1(Cl)Cl)=N\OC(=O)c1ccccc1 (stereo not shown) | 9.57%
COc1ccccc1/C=C/CN1CCCC(CCC(=O)NCc2ccccc2F)C1 (stereo not shown) | -24.8%
O=C(O)c1cccc(N/N=C/c2cn(-c3ccccc3)nc2-c2cccs2)c1 | 13.5%
Cc1ccc(C(=O)N2CCCC(C(=O)c3cc(F)ccc3F)C2)s1 (stereo not shown) | 9.51%
CCCC(=O)Nc1nn(CC(C)C)c2nc3cc(C)ccc3cc12 | 11.7%
Cc1ccc(NC(=O)c2ccc(Nc3c([N+](=O)[O-])cc([N+](=O)[O-])cc3[N+](=O)[O-])cc2)cc1 | 13.1%
CCOc1ccc(N2Cc3ncccc3C2=O)cc1 | -11.6%
NNC(=O)c1[nH]c2ccc(Cl)cc2c1-c1ccccc1 | 8.54%

Structure (SMILES) | hERG current change (%, negative = inhibition) at 1uM
COc1cc(-c2nnc(COC(=O)c3cc(C)nc4ccc(C)cc34)o2)cc(OC)c1OC | 7.64%
COc1ccc(C(=O)NNC(=O)c2ccc3ccccc3n2)cc1 | -19.5%
COc1ccc(CCNC(=O)CN(CCc2ccccc2)S(C)(=O)=O)cc1OC | 13.9%
Cc1cc(=S)cc(C)n1CCCO | 2.89%
CCSc1ncc(Cl)c(C(=O)Nc2ccccc2)n1 | 7.25%
COc1ccc(Cl)cc1C(=O)NCCN1CCOCC1 | 13.1%
COc1ccc(C(=O)O/N=C2\CCS(=O)(=O)c3sccc32)cc1 | 10.4%
Cc1ccc(OCC(=O)Nc2cc(S(=O)(=O)N3CCCCC3)ccc2C)c([N+](=O)[O-])n1 | 10.1%
CCC(c1nnc(SCCNCCO)n1CCN1CCOCC1)N(C)C.O=C(O)C(=O)O (stereo not shown) | 17.4%
CCN(C(=O)COC(=O)c1cccnc1Nc1cccc(C(F)(F)F)c1)C1CCS(=O)(=O)C1 (stereo not shown) | 7.32%
COc1ccc(CCNC2=NCCS2)cc1 | 5.26%
Cc1ccc(N(Cc2ccccc2)C(=O)c2ccc(C)c(S(=O)(=O)N3CCOCC3)c2)cc1 | -4.53%
O=C(CNC(=O)c1ccc(Br)o1)NNC(=O)c1n[nH]c(=O)c2ccccc12 | 16.4%
O=c1c(Cc2ccccc2)c(O)ccn1CCc1cnc[nH]1 | 15.2%
O=C(O)c1cc(-c2ccc3ccccc3c2)nc2ccc(F)cc12 | 24.6%
CCC(=O)NC1(C(F)(F)F)C(=O)Nc2c1c(=O)n(C)c(=O)n2C (stereo not shown) | 10.9%
CCn1cc(C(=O)NCc2ccco2)c(=O)c2cc(S(=O)(=O)N3CC(C)CC(C)C3)ccc21 (stereo not shown) | 11.7%
COc1ccc(C(=O)COC(=O)Cn2[nH]c(=O)c3ccccc3c2=O)c(OC)c1 | 17.8%
COc1ccccc1N1CCN(/N=C/C=C\c2ccco2)CC1 | 6.12%
COC(=O)[C@@H](NC(=O)NC1CCCCC1C)C(C)C (stereo partly shown) | 7.34%
CCOC(=O)C1CCCN(Cc2cn[nH]c2-c2ccc(F)cc2F)C1 (stereo not shown) | -3.37%
COc1cc2ccccc2cc1C(=O)Nc1ccccc1N1CCN(S(C)(=O)=O)CC1 | 11.7%
O=C(c1ccccc1SCc1ccccc1)N1CCCCCC1 | 0.414%

Structure (SMILES) | hERG current change (%, negative = inhibition) at 1uM
CCOC(=O)c1cnc(SCC(=O)c2ccc(Cl)cc2)nc1N | 15.9%
CCOC(=O)CSC1=C(C#N)C(c2sccc2C)C(C(C)=O)=C(C)N1 (stereo not shown) | 9.44%
CSc1ccccc1OCc1cc(C(=O)NCc2csc(C(C)C)n2)no1 | 8.25%
CCOC(=O)N1CCN(C(=O)CN(c2ccc(OC)c(OC)c2)S(C)(=O)=O)CC1 | -3.74%
Cc1ccc(CNC(=O)CCn2c(=O)oc3ccccc32)cc1 | 9.38%
CN1CCN(C(c2ccccc2)c2ccccc2)CC1.Cl | 10.8%
COc1ccccc1N1C(=O)c2ccc(C(=O)Nc3ccc(F)cc3)cc2C1=O | 6.32%
Cn1c(SCC(=O)Nc2ccc(NC(=O)c3ccccc3F)cc2)nnc1-c1ccncc1 | 14.9%
Cc1ccc(CNS(=O)(=O)c2cc3c(cc2C)N(C)CCO3)cc1 | 11.1%
Nc1nnc(-c2ccccc2[N+](=O)[O-])o1 | 7.34%
CC(C)c1ccc(/C=C(\NC(=O)c2ccccc2)C(=O)NCCN2CCOCC2)cc1 | -21.9%
COCCCNC(=O)COc1cc(C)c(Cl)c(C)c1 | 5.43%
CC(C)CN(C(=O)c1ccc(=O)n(C)n1)c1c(N)n(Cc2ccccc2)c(=O)[nH]c1=O | 8.25%
Nn1c(SCC(=O)Nc2cccnc2Cl)nnc1-c1ccccc1 | 8.94%
CCC1=C(OC(=O)N(CC)CC)N2C(=O)OC(=NCC(=O)OC)[C@]2(Cc2ccccc2)[C@H]2C1=CC[C@H]1C(=O)NC(=O)[C@H]12 | 12.2%
CCC(C)NCC(O)COCc1ccc(Cl)cc1.Cl (stereo not shown) | 3.93%
CNc1cc(-n2nc(C)cc2-c2ccccc2)ncn1 | 15%
O=C(NCCNC(=O)c1ccc(F)cc1)c1ccc(F)cc1 | 4.44%
CCOP(=O)(c1ccccc1)C1(C#N)CC1 (stereo not shown) | 13.2%
CCc1c(C#N)c(SCCC(=O)Nc2ccc(F)cc2)nc2c1C(=O)CC(C)(C)C2 | 9.81%
CC1CCC/C(=N\NC(=O)c2ccncc2)C1 (stereo not shown) | 2.73%
COc1cccc(CNS(=O)(=O)c2c(C(=O)N3CCCCCC3)c(C)n(C)c2C)c1 | 7.52%
